# Results published in publication PMC6919601, “Identification of Plasmodium dipeptidyl aminopeptidase allosteric inhibitors by high throughput screening” (PLoS ONE, 2019).
# The campaign covered roughly 110,000 compounds. About 230 (0.21%) showed an effect of 50% or more. This is one part of the list.
# Biological target: DPAP1 (Plasmodium falciparum, UniProt Q8IIJ9)
# Assay: primary screen, percent inhibition; read by cleavage of a fluorogenic dipeptide substrate; higher = more effect of the substance
# Design: species or system P. falciparum D10 trophozoite lysates; single well
# 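Also: 30 min substrate incubation versus DMSO and 10 µM JCP410 controls.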
# Sequence of DPAP1 (Q8IIJ9 whole entry, looked up): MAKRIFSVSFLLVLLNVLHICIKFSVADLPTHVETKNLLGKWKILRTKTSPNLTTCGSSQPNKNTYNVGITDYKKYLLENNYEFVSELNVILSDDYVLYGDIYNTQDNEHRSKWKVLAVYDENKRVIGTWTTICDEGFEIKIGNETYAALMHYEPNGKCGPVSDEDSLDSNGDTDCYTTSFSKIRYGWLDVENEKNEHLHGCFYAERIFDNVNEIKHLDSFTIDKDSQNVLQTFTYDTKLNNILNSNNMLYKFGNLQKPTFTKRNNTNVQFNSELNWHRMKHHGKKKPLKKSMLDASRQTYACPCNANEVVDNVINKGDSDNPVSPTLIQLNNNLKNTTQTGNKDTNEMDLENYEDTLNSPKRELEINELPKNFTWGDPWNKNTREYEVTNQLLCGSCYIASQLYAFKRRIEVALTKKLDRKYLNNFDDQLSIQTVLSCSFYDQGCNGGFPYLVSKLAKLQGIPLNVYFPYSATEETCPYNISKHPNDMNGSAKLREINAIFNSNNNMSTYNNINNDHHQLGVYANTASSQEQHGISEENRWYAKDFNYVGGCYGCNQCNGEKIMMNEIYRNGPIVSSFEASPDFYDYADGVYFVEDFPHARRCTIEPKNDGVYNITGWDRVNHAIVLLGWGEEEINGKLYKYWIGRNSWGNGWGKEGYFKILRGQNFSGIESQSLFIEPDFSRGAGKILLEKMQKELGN
row,SMILES,% Inhibition @ 10 uM [%]
1,O=C(Nc1cccc(Cl)c1)C(=O)NC1CCCCC1,1.29
2,CCOC(=O)c1c(C)n(-c2ccccc2)c2cc(Br)c(O)c(CN3CCOCC3)c12,-2.75
3,OC1CCCN(CC(c2ccccc2)c2ccccc2)C1 (centres unmarked),0.0792
4,Cc1ccc2c(c1)c1c3n2CNCC3CCC1 (centres unmarked),0.0345
5,CC(C)CC(C(=O)NCC#N)c1cccc(-c2cccc(OC3CCNCC3)c2)c1 (centres unmarked),4.63
6,O=S1(=O)C=C(c2ccccc2)c2ccccc21,-0.759
7,CC(C)CS(=O)(=O)C1=NSC2=NC(=O)/C(=C\c3c[nH]c4ccccc34)C(=N)N21,5.06
8,Cc1ccc(CCN2CC(C(=O)NCCCN3CCOCC3)CC2=O)cc1 (centres unmarked),-5.43
9,Cc1ccc(NC(=O)CN2C(=O)S/C(=C\c3cccs3)C2=O)cc1,-4.3
10,CC(=O)c1cccc(NC(=O)C(C)NS(=O)(=O)c2ccc(C)cc2)c1 (centres unmarked),-5.32
11,Cc1oc(C(=O)O)cc1COc1ccc2c(-c3ccccc3)cc(=O)oc2c1C,-7.47
12,Cc1ccc2cc3c(N)nn(C(=O)c4cccc(Cl)c4)c3nc2c1,-0.22
13,COc1ccccc1OC(C)C(=O)N(Cc1ccc(Cl)cc1)C1CCS(=O)(=O)C1 (centres unmarked),0.561
14,COc1ccc(CSC(C)(C)[C@H](NC(=O)OCc2ccccc2)C(=O)NCC#N)cc1,-1.41
15,COc1ccc(C(=O)n2c(C)cc(C)c(C#N)c2=O)cc1,3.72
16,CCOc1ccccc1CNCC1CCCO1 (centres unmarked),0.145
17,COc1ccccc1C(=O)N1N=C(C(F)F)CC1(O)C(F)F (centres unmarked),-3.05
18,Cc1oc2ccc(O)cc2c1[N+](=O)[O-],0.847
19,CCOc1ccc2nc(C)c(C/C=C(/C)Cl)c(S)c2c1,-4
20,CN(C)CC(O)Cn1c2ccccc2c2ccccc21 (centres unmarked),-1.97
21,Cc1ccc(OCC(=O)NCCc2ccccc2)cc1,-4.08
22,c1cnc(N2CCN(Cc3cccc4ccccc34)CC2)nc1,-1.92
23,CC1(C)CN=C(N2CCN(C3=NCC(C)(C)S3)CC2)S1,-6.29
24,Cc1ccc(C2=NN(C(=O)C3CCCO3)C(c3ccco3)C2)cc1 (centres unmarked),-11.7
25,CCOc1ccc(C2c3c(oc4ccc(C)cc4c3=O)C(=O)N2c2ccccn2)cc1 (centres unmarked),0.415
26,CCCCN(C)C(=O)Cn1c(=O)c2cccn2c2cccnc21,-4.46

row,SMILES,% Inhibition @ 10 uM [%]
1,COc1ccc(CCNC(=O)C2CCN(c3ccc(N4CCOCC4)nn3)CC2)c(OC)c1,5.32
2,Cc1cc(NC(=O)c2cnn(-c3ccccc3)c2-n2cccc2)no1,0.137
3,CCc1ccccc1NC(=O)c1ccc([N+](=O)[O-])o1,2.22
4,C=CCn1c(=N)n(CC(=O)c2ccc(Cl)c(Cl)c2)c2ccccc21,-0.999
5,COc1ccc2[nH]cc(CCN3C(=O)C4CCCCC4C3=O)c2c1 (centres unmarked),-5.67
6,COc1cc(-c2cc(C(=O)O)c3c(-c4ccc(Br)cc4)[nH]nc3n2)ccc1O,3
7,Cc1cccc(NC(c2ccc(F)cc2)C2CCCC2=O)c1 (centres unmarked),3.48
8,CC(=O)c1ccc(NC(=O)C23CCC(C)(c4nc5ccccc5nc42)C3(C)C)cc1 (centres unmarked),-0.473
9,Fc1cccc(F)c1CN1CCN(c2ccccc2)CC1,-4.04
10,COc1ccc(C(O)c2nc3ccccc3s2)cc1 (centres unmarked),5.66
11,CC1(C)CC(=O)C2=C(C1)N(c1nc[nH]n1)C(N)=C(C#N)C2c1ccccc1Cl (centres unmarked),-10.2
12,Cc1ccc(OCC(=O)N2CCCCC2)c(Br)c1,1.87
13,COc1cccc(C(=O)Nc2cccc3cccnc23)c1OC,-5.51
14,Cc1ccccc1Nc1nc(Cl)nc(N2CCOCC2)n1,2.62
15,COC(=O)c1c(NC(=O)C2=C(C)C(=O)OC23CCCCC3)sc(C)c1C,-2.14
16,COc1ccc(-c2noc(-c3ccc(Br)cc3)n2)cc1OC,2.76
17,Cc1cccc(-c2noc(CN(C(=O)CCc3ccccc3)C(C)C)n2)c1,-2.45
18,COc1cccc(C2CC(=O)N3CN(CCc4sccc4C)CSC3=C2C#N)c1 (centres unmarked),56.9
19,CCCc1nc(N2CCCC2)c(C#N)c2c1CCCC2,5.3
20,Cc1nn(-c2ccccc2)c(-n2cccc2)c1C(=O)N1CCC(C(=O)NC2CCCCCC2)CC1,-7.1
21,Cc1ccccc1-n1nc2c(c1NC(=O)Cc1ccccc1)CS(=O)(=O)C2,-0.195
22,Cc1nc2sc3c(NCCc4ccccc4)ncnc3c2c2c1COC(C)(C)C2,5.3
23,COc1cc(/C=C/c2nc(C#N)c(NCc3ccc(F)cc3)o2)cc(OC)c1OC,0.895
24,N#CC1=C(N)Oc2cc(O)ccc2C1c1ccsc1 (centres unmarked),-1.18
25,Cc1cc(C)n(-c2cc(Oc3ccc(C#N)cc3)nc(-c3ccccc3)n2)n1,2.33
26,COc1ccc(C(=O)N2CCC(C(=O)Nc3ccc(C(N)=O)cc3)CC2)cc1OC,1.88

row,SMILES,% Inhibition @ 10 uM [%]
1,O=C1C(=O)N(Cc2ccccc2)c2ccc(Br)cc21,3.03
2,O=C(Cc1ccc(Cl)cc1)Nc1cccc(-c2nc3ncccc3o2)c1,-7.08
3,O=C(O)c1ccc2c(c1)OCCOCCOCCO2,10.6
4,COc1cc(CN2CCSCC2)cc(OC)c1OC,3.54
5,CC1=C(C(=O)N2CCCCC2)C(c2ccc(C)cc2)n2c(nc3ccccc32)N1 (centres unmarked),-0.326
6,CN(C)CCC/N=C/c1c(O)[nH]c2ccccc12,1.79
7,CN(c1nnc(N)s1)C1CCCCC1,5.95
8,CC(C)(C)C1CCc2c(sc3nnn(CCCN4C(=O)c5ccccc5C4=O)c(=O)c23)C1 (centres unmarked),-4.54
9,CC1C2NC(=S)NC1(C)Oc1ccc(Br)cc12 (centres unmarked),-5.27
10,C(=N\c1nc2ccccc2n1CCN1CCCCC1)/c1ccc2c(c1)OCO2,14.3
11,CC1=C(C(=O)Nc2ccccc2F)C(c2ccc(N(C)C)cc2)C2=C(O)CCCC2=N1 (centres unmarked),-2.68
12,CCc1ccc(S(=O)(=O)Nc2ccc(-c3nc4ccc(C)cc4s3)cc2)cc1,4.26
13,CC(=O)Nc1ccc(CN2CCN(c3ccc(F)cc3)CC2)cc1,-0.828
14,Cc1ccc(C2CC(C(F)(F)F)n3nc(C(=O)O)cc3N2)cc1 (centres unmarked),-6.02
15,CC1CCc2c(sc3nnn(Cc4ccc(Cl)cc4)c(=O)c23)C1 (centres unmarked),3.87
16,O=C(CN1CCN(Cc2ccccc2)CC1)NCC1COc2ccccc2O1 (centres unmarked),-8.55
17,CN1CCC(N2CCc3c([nH]c4ccccc34)C2)CC1,-1.21
18,O=C(CC1Sc2ccccc2NC1=O)NC1CCCCC1 (centres unmarked),1.94
19,COc1ccc2nc(NC(=O)CCn3cccc3)sc2c1,0.953
20,OC(COc1ccccc1)CN1CCCCCC1 (centres unmarked),1.04
21,O=C(CCc1nc2cccnc2n1-c1ccccc1)NCc1ccc(Cl)cc1,-2.88
22,CC1=C(CCN2CCCC(O)C2)C(C)(C)CCC1 (centres unmarked),-4.75
23,CC(C)(C)CC(=O)Nc1ccc(Oc2ccccc2)cc1,16.4
24,CC(C)(C)OC(=O)N1CCC(c2c(C(=O)NCCc3ccccc3)cnn2-c2cccc(F)c2)CC1,-6.36
25,OCCCc1nc2n(n1)C(c1ccc(Cl)cc1)C=C(c1ccc(F)cc1)N2 (centres unmarked),14.3
26,O=C(Cn1c(-c2ccccn2)nc2ccccc21)NCCN1CCOCC1,0.0539

row,SMILES,% Inhibition @ 10 uM [%]
1,CCN(CC)CCNC(=O)C12CC3CC(C)(CC(C)(C3)C1)C2,-5.59
2,CCOC(=O)C1=C(C)N(c2ccc(OCC)cc2)C(=O)/C1=C\c1ccccc1,1.4
3,COc1ccc(CCNc2nc(-c3ccccn3)cs2)cc1OC,-1.69
4,C#CCn1c(COC)nc2ccccc21,-2.28
5,COCCNC(=O)CNS(=O)(=O)c1c(C)c(C)cc(C)c1C,-3.41
6,N#Cc1ccc(-c2ccccc2)nc1S,47
7,O=C(Nc1ccc2ccccc2c1)c1ccccc1Cl,-9
8,O=C1c2ccc(Oc3ccc([N+](=O)[O-])cc3)cc2C(=O)N1c1ccccc1O,-1.42
9,CCOC(=O)N1CCN(Cc2cn3c(-c4ccc(Br)cc4)nnc3s2)CC1,2.35
10,CCC(C)NC(=O)C1CCN(S(=O)(=O)c2ccc3nc4c(c(C(=O)O)c3c2)CC(C)CC4)CC1 (centres unmarked),0.291
11,Cc1oc(-c2ccc(C(=O)NCC3CCCO3)cc2)nc1COc1ccccc1 (centres unmarked),-1.83
12,O=C(CC(C(=O)O)c1ccccc1)Nc1cccc2ccccc12 (centres unmarked),0.83
13,CCCCC(=O)Nc1ccc(NCc2ccc(C)s2)cc1,-0.759
14,NC(=O)C1CCN(C(=O)CCn2c(=O)c3cccn3c3cccnc32)CC1,2.06
15,CCN1CCN(Cc2ccccc2Br)CC1,0.605
16,CC(CCc1ccco1)NC(=O)C1CCN(c2ncnc3c2nc2n3CCCCC2)CC1 (centres unmarked),-5.03
17,C1=CC2CC1CC2CN1CCOCC1 (centres unmarked),2.7
18,Cc1ccc(C)n1-c1nnc(N2CCCC(C(=O)NCCC(C)C)C2)s1 (centres unmarked),-0.637
19,CC(=O)Nc1ccc(C(=O)N(c2ccccc2)c2ccc3ccccc3c2)cc1,-0.988
20,COc1ccc(-c2nc3s/c(=C\c4cccc5ccccc45)c(=O)n3n2)cc1OC,-2.98
21,CCCCOC(=O)c1nc2nc(C)cc(C)n2n1,1.87
22,COc1ccc(C2CC(O)=C/C(=N/CCC(C)C)C2)cc1 (centres unmarked),2.38
23,CC(C)C/N=C1\CC(C)(C)CC(O)=C1C(=S)Nc1ccccc1,3.46
24,Cc1sc(-n2cccc2)c(C#N)c1C,3.3
25,CCN1CCN(Cc2cc(OC)ccc2O)CC1,-1.78
26,Cc1ccc(C#N)c(SCc2cccc(Br)c2)n1,0.726
